In PubChem BioAssay AID360 (National Center for Advancing Translational Sciences (NCATS), 2006):
In all, about 48,000 compounds went through this assay and about 550 (1.1%) were called active. Roughly 4% stayed inconclusive and do not appear here. No stated cut-off is given here; in the data, active means potency below about 15 µM; inconclusive means mostly about 16 µM to 33 µM; inactive means weaker than that. The list shows a part of the results.

Biological target: Lysosomal acid glucosylceramidase (Homo sapiens) (UniProt P04062)
UniProt P04062, sequence (P04062 whole entry, looked up): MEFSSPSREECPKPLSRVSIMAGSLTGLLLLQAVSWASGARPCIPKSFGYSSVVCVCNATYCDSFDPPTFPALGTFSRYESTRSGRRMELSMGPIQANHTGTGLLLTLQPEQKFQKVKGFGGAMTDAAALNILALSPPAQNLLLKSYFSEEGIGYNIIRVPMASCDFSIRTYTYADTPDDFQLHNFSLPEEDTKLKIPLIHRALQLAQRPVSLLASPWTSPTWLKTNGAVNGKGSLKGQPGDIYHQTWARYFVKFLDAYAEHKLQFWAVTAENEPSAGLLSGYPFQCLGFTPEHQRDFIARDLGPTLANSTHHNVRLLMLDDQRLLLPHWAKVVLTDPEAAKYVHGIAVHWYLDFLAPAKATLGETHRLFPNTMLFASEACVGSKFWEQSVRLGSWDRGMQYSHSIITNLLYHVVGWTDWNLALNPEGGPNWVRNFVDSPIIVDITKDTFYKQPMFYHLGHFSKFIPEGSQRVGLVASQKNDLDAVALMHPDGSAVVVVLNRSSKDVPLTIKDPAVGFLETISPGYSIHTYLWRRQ
Assay: Glucocerebrosidase;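 further: the screen sought inhibitors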
Settings: purified enzyme, resorufin glucoside fluorescence (screen aimed at inhibitors), 20 min; series mostly up to 77 µM
From the text: NCGC Assay Overview: Beta-glucocerebrosidase catalyzes the hydrolysis of beta-glucocerebroside to glucose and ceramide. The inherited deficiency of beta-glucocerebrosidase results in Gaucher disease, which is characterized by a wide variety of symptoms including hepatosplenomegaly, anemia, thrombocytopenia, bony lesions and bone marrow infiltration with characteristic storage cells, known as Gaucher cells. There are also forms of the disorder affecting the central nervous system. Patients with the same genotypes can manifest with diverse clinical presentations and it is believed that improper folding and trafficking of beta-glucocerbrosidase may contribute to the phenotypes observed. Low molecular weight molecules, acting as chaperones, may potentially restore trafficking of misfolded beta-glucocerebrosidase from the endoplasmic reticulum to the lysosomes, thereby enhancing functional lysosomal beta-glucocerebrosidase activity. Using normal beta-glucocerebrosidase, an assay was developed to screen for small molecule inhibitors that could potentially act as molecular chaperones on the mutant forms [developed with NIH investigator Dr. Ellen Sidransky's laboratory]. Two pro-fluorescent substrates were chosen for two screens against a small molecule library. One beta-glucocerebrosidase assay used Resorufin beta-D-Glucopyranoside (Marker Gene Technology Inc.), generating a red fluorescent product. The second assay used Fluorescein di-beta-D-Glucopyranoside, generating a blue fluorescent product. […] The IC50 values of Conduritol B Epoxide, a known glucocerebrosidase inhibitor, were determined to be 87.5 uM and 117 uM, respectively. The use of two difference pro-fluorescent substrates in the screens helped to eliminate false positives. All compounds were screened in a titration series resulting in AC50s (e.g., IC50s or EC50s).
NCGC Assay Protocol Summary: Both enzyme and substrate were diluted in buffer composed of 50mM citric acid/KH2PO4, 10mM sodium taurocholate and 0.01% tween-20 at pH 5.9. The final concentration of the enzyme was 0.2 nM in both assays. The compound library was titrated in 7 to 15 concentrations for the primary screens with a final concentration ranging from 0.6 nM to 50 uM. This particular assay protocol is for the "red" substrate, and it was performed in 1536-well plate format as follows: Red fluorescence substrate assay: 2 uL enzyme 23 nL compound 1 uL substrate (final concentration of 30 uM) Incubate at room temperature (RT) for 20 minutes Read the plate in Viewlux plate reader (Ex=548(7) and Em=600(10)).
Potency means the concentration at half of the fitted maximal effect.

SMILES	Potency
CCCC1(C(=O)OC)NC(c2cccc(F)c2)C2C(=O)N(CC)C(=O)C21 (stereo not given)	inactive: > 76.9 µM
O=C(Nc1ccc2c(c1)OCO2)N1CCN(S(=O)(=O)c2ccc(Cl)cc2)CC1	inactive: > 76.9 µM
CCn1c(SCC(=O)Nc2nc(C)c(C)s2)nnc1-c1ccco1	inactive: > 76.9 µM
Cc1ccc(-c2cc(-c3ccccc3)c(C#N)c(N)n2)o1	inactive: > 76.9 µM
O=C(OCn1nnc2ccccc2c1=O)C1COc2ccccc2O1 (stereo not given)	inactive: > 76.9 µM
O=c1cc(N2CCC3(CC2)OCCO3)[nH]c(=O)n1C1CCCCC1	inactive: > 76.9 µM
Cc1cc(N(C)C)c(C#N)c(N2CCOCC2)n1	inactive: > 76.9 µM
O=C(c1ccco1)N1CCN(C(c2ccccc2Cl)c2nnnn2CC2CCCO2)CC1 (stereo not given)	inactive: > 76.9 µM
Cc1ccc(S(=O)(=O)N2CCCC(C(=O)NCCc3ccc4c(c3)OCO4)C2)cc1 (stereo not given)	inactive: > 76.9 µM
COc1ccc(Cl)cc1NC(=O)COC(=O)CCNC(C)=O	inactive: > 76.9 µM
CCCn1c(SCC(=O)Nc2sc(C)c(C)c2C(=O)OCC)nc2c1c(=O)n(C)c(=O)n2C	inactive: > 76.9 µM
Cc1nc(CNS(=O)(=O)c2ccc(Oc3ccccc3)cc2)cs1	inactive: > 76.9 µM
CN1CCCC(OC(=O)COc2ccccc2)C1 (stereo not given)	inactive: > 76.9 µM
Cc1cc(C)n(-c2nc3ccccc3nc2N2CCN(C(=O)c3ccc(Cl)cc3)CC2)n1	inactive: > 76.9 µM
COc1ccccc1N1CCN(C(=O)Cn2nnc(-c3cccs3)n2)CC1	inactive: > 76.9 µM
O=C(c1ccc(F)cc1)N(Cc1ccccc1)C1CCS(=O)(=O)C1 (stereo not given)	inactive: > 76.9 µM
CN(C)c1nc(N)nc(CSc2ncc(Cl)cc2Cl)n1	inactive: > 76.9 µM
N#CCSc1nc2ccc(N3CCCCC3)cc2c(=O)n1Cc1ccccc1	active: 15.2 µM
COc1ccc(NC(=O)CCn2nc(C)cc2C)cc1	inactive: > 76.9 µM
Cc1nc2c(cnn2-c2ccc(Cl)cc2)c(=O)n1-c1ccc2c(c1)OCCO2	inactive: > 76.9 µM
Cc1nnc(SCC(=O)c2c(N)n(C)c(=O)n(C)c2=O)[nH]c1=O	inactive: > 76.9 µM
CN1C(=O)CC2(CC(=O)N(Cc3ccccc3)C2)C1=O (stereo not given)	inactive: > 76.9 µM
COc1ccccc1N1CCN(C/C(O)=C(\C#N)c2nc(-c3ccccc3)cs2)CC1	inactive: > 76.9 µM

SMILES	Potency
CCC(=O)N1CCc2cc(S(=O)(=O)NCCC(=O)N3CCN(c4ccccn4)CC3)ccc21	inactive: > 76.9 µM
COC(=O)c1ccc(NC(=O)C2CCN(S(C)(=O)=O)CC2)cc1	inactive: > 76.9 µM
O=C(Nc1ccccc1)N1CCN(c2nc3ccccc3s2)CC1	inactive: > 76.9 µM
CCOCCOc1nc2c(c(=O)n(C)c(=O)n2C)n1CCc1ccccc1	inactive: > 76.9 µM
COc1ccccc1NC(=O)Nc1ccnn1C1CCCCC1	inactive: > 76.9 µM
CCNC(=O)CC(=O)Nc1ccccc1C(=O)O	inactive: > 76.9 µM
CCOC(=O)C1=C(C)Nc2ncnn2C1c1c[nH]c2ccccc12 (stereo not given)	inactive: > 76.9 µM
O=c1cc(Nc2ccc3c(c2)OCCO3)[nH]c(=O)n1-c1ccc(Br)cc1	inactive: > 76.9 µM
O=C(COc1cccc(C(F)(F)F)c1)Nc1ccc(S(=O)(=O)N2CCCC2)cc1	inactive: > 76.9 µM
CCn1c(=O)c(C(=O)NCCN2CCCCC2)c(O)c2ccccc21	inactive: > 76.9 µM
c1ccc(-c2ccc(-c3ccccn3)nn2)nc1	inactive: > 76.9 µM
O=C(C(F)C(F)(F)F)N1CCN(c2ccccc2)CC1 (stereo not given)	inactive: > 76.9 µM
COc1ccc(-c2nc(NC(=O)c3cc(C(C)(C)C)nn3C)sc2C)cc1	inactive: > 76.9 µM
O=C1N/C(=C\c2ccccc2)c2ccccc21	inactive: > 76.9 µM
Cn1c(Cn2nnc3ccccc32)nnc1SCC(=O)NCc1ccc2c(c1)OCO2	inactive: > 76.9 µM
COc1ccc(OC)c(NC2c3ncccc3C(=O)N2Cc2ccco2)c1 (stereo not given)	inactive: > 76.9 µM
COCCNC(=O)c1snc2ccc(Cl)cc12	inactive: > 76.9 µM
Cc1ccc2c(c1)c1ncnc(N3CCC4(CC3)OCCO4)c1n2C	inactive: > 76.9 µM
CCOC(=O)c1c(NC(=O)c2nc3n(n2)C(C(F)F)CC(C)N3)sc2c1CCCC2 (stereo not given)	inactive: > 76.9 µM
COc1ccc(OC)c(S(=O)(=O)Nc2ccccc2C)c1	inactive: > 76.9 µM
COc1cc2nc(SCC(=O)NCCc3ccccc3)n(Cc3ccco3)c(=O)c2cc1OC	inactive: > 76.9 µM
Cc1nc2nc(SCC(=O)NCc3ccco3)nn2c(C)c1Cc1c(F)cccc1Cl	inactive: > 76.9 µM
Cn1c(CNc2ccccn2)c(C#N)c2ccccc21	inactive: > 76.9 µM

SMILES	Potency
Oc1ccccc1-c1cc(-c2ccccc2Cl)[nH]n1	inactive: > 76.9 µM
CCC(CC)C(=O)Nc1cccc(C(=O)NCc2ccco2)c1	inactive: > 76.9 µM
Nc1nsc2ccccc12	inactive: > 76.9 µM
CCOC(=O)N1CCN(C(=O)c2oc3ccc(S(=O)(=O)N4CCCCC4)cc3c2C)CC1	inactive: > 76.9 µM
COc1ccc(CNC(=O)C2CCN(S(=O)(=O)c3cc(OC)ccc3OC)CC2)cc1	inactive: > 76.9 µM
CCn1c(COc2cccc3ccccc23)nnc1SCC(N)=O	inactive: > 76.9 µM
Clc1ccccc1OCc1nnc(-c2ccccc2Br)o1	inactive: > 76.9 µM
Cc1ccc(-c2cc(-c3ccccc3Cl)c(C#N)c(N)n2)o1	inactive: > 76.9 µM
COc1ccc(-c2nnc(SC(C)C(=O)Nc3ccc4c(c3)OCCO4)o2)cc1 (stereo not given)	inactive: > 76.9 µM
O=C1CC(Sc2ncccn2)C(=O)N1c1ccccc1C(F)(F)F (stereo not given)	inactive: > 76.9 µM
Cc1ccc(C)c(NC(=O)C2CC(O)CN2C(=O)OC(C)(C)C)c1 (stereo not given)	inactive: > 76.9 µM
O=S1(=O)N=C2CCCN2C(c2ccc(F)cc2)N1 (stereo not given)	inactive: > 76.9 µM
Cc1ccc(Nc2nc3nonc3[nH]c2=O)cc1	inactive: > 76.9 µM
CCc1cc(/C(Cc2ccc3ccccc3n2)=N\O)c(O)cc1O	inactive: > 76.9 µM
O=S(=O)(c1ccccc1)N(C1=NCCS1)S(=O)(=O)c1ccccc1	inactive: > 76.9 µM
COc1cccc(C2C3=C(CCCC3=O)Nc3nc4ccccc4n32)c1OC (stereo not given)	inactive: > 76.9 µM
CCOc1cc(-c2nc(-c3ccccc3OC)no2)cc(OCC)c1OCC	inactive: > 76.9 µM
Clc1ccc2nc3ccccn3c2c1	inactive: > 76.9 µM
CC(C)Cn1c(-c2ccc(Cl)cc2)cnc1SCC(=O)N1CCOCC1	inactive: > 76.9 µM
c1ccc2c(c1)Cn1nnnc1-2	inactive: > 76.9 µM
FC(F)(F)c1cccc(OCCOCCn2cncn2)c1	inactive: > 76.9 µM
C=CCn1c(CC(=O)OC)csc1=Nc1ccc(C(C)=O)cc1	inactive: > 76.9 µM
COC(=O)CN1C(=O)C(O)(CC(=O)c2ccc(C)o2)c2ccccc21 (stereo not given)	inactive: > 76.9 µM

SMILES	Potency
COc1ccccc1CNC(=O)CN(c1ccc(C)cc1)S(=O)(=O)c1c(C)nn(C)c1C	inactive: > 76.9 µM
CC1CC1C(=O)OCc1cc(=O)n2cc(Br)ccc2n1 (stereo not given)	inactive: > 76.9 µM
Fc1cc2nccnc2cc1N1CCSCC1	inactive: > 76.9 µM
CC(=O)OC1CC(C)N(C(=O)c2ccccc2)c2ccc(C)cc21 (stereo not given)	inactive: > 76.9 µM
COc1cc(-c2nn3c(-c4cccc(C)c4)nnc3s2)cc(OC)c1OC	inactive: > 76.9 µM
O=C(NCCCN1CCN(c2ccccc2F)CC1)C1CCC(=O)N1C1CCCCC1 (stereo not given)	inactive: > 76.9 µM
CN(C1CCCCC1)S(=O)(=O)c1ccc(NC(=O)c2ccco2)cc1	inactive: > 76.9 µM
c1ccc(-c2ccccc2-c2nc(-c3cccnc3)no2)cc1	inactive: > 76.9 µM
Cc1cccc(N2C(=O)CC(N(C(=O)c3ccco3)c3cccc(C)c3)C2=O)c1 (stereo not given)	inactive: > 76.9 µM
COC(=O)c1ccccc1S(=O)(=O)N(Cc1ccco1)Cc1cc2cc(OC)ccc2[nH]c1=O	inactive: > 76.9 µM
COc1ccc(CCN(Cc2nc(-c3ccccc3)no2)Cc2nc(-c3ccccc3)no2)cc1OC	inactive: > 76.9 µM
O=C(c1ccc(N2CCNCC2)cc1)c1cccnc1	inactive: > 76.9 µM
CCNC(=O)c1ccc2c(c1)S(=O)(=O)c1ccccc1C2=O	inactive: > 76.9 µM
Cc1onc(-c2c(Cl)cccc2Cl)c1C(=O)Nc1c(C)n(C)n(-c2ccccc2)c1=O	inactive: > 76.9 µM
O=C1CCCc2[nH]nc(-c3cccnc3)c21	inactive: > 76.9 µM
CCn1c(=S)sc2c(=O)n(-c3ccccc3)c(SC)nc21	inactive
CCC(C)(C)NC(=O)C(c1ccncc1)N(Cc1cccs1)C(=O)Cn1nnc2ccccc21 (stereo not given)	inactive: > 76.9 µM
CN(CCNC(=O)c1ccc(N2CCCC2=O)cc1)CCc1ccccc1	inactive: > 76.9 µM
COc1cc2ccccc2cc1C(=O)Nc1ccc(S(=O)(=O)Nc2cc(C)on2)cc1	inactive: > 76.9 µM
COC(=O)c1c(NC(=O)CSc2nnc(Cn3nnc4ccccc43)n2C)sc(C)c1C	inactive: > 76.9 µM
CC1=Nc2ncnn2C(c2ccccc2)/C1=N\O (stereo not given)	inactive: > 76.9 µM
